Data published in the supplement of paper PMC3334620.
The full ranking holds about 33,000 sequences; the median of “E-score (-0.5 to 0.5)” is about -0.021, and the highest 2% start at about 0.32. The list shows a part of the results.

Biological target: T1, Zap1 (UniProt P47043)
T1 sequence: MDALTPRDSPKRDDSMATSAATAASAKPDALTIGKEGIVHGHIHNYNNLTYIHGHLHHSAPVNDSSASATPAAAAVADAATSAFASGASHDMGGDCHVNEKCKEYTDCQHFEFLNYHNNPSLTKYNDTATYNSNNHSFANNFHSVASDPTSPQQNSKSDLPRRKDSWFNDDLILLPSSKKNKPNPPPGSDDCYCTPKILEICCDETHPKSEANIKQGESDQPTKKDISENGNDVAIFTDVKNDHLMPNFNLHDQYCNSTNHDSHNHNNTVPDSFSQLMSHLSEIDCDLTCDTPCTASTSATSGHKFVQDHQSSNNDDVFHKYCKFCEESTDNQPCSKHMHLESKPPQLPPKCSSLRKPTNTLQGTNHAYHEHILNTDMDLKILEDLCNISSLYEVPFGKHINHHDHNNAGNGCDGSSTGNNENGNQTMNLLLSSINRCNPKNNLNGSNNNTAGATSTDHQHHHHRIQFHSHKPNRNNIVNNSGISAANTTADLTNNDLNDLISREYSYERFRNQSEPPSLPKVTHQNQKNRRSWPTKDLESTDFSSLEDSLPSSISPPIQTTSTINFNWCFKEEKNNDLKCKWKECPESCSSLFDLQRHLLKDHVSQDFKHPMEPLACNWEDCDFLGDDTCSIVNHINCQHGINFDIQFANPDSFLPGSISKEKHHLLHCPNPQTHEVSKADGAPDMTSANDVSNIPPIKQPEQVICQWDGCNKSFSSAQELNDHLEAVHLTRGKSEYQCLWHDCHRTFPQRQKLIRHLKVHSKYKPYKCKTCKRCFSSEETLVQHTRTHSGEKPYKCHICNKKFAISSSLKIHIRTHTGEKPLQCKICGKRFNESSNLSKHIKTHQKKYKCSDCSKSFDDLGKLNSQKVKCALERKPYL
Test: PBM E-score (8-mer binding enrichment) (E-score (-0.5 to 0.5)); higher = stronger / more preferred TF binding; most listed sequences are background and not binding sites
Settings: protein concentration: 200 nM; construct: GST-full length
Procedure, shortened: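 Using PURExpress in vitro transcription/translation, GST-tagged yeast transcription factors were made in full-length or DNA-binding-domain form. These were applied at about 100-200 nM to double-stranded universal all-10-mer Agilent arrays, and bound protein was detected with fluorescent anti-GST. Scans were normalised with masliner before the Universal PBM Analysis Suite assigned E-scores to ungapped eight-base words pooled with their reverse complements.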

| Sequence | PBM E-score |
| --- | --- |
| CACGATTA | 0.0273 |
| ACTCGAAT | -0.0228 |
| CGTAGCGA | -0.251 |
| ATTTTGTA | 0.254 |
| CACACGAG | -0.0928 |
| AGATTATA | 0.0691 |
| AAACACGA | 0.14 |
| ATTCTCCG | -0.164 |
| CAGCTTCA | -0.0747 |
| TCAGCGAA | -0.107 |
| ATTGCGGA | 0.16 |
| CCGCAAGG | 0.0916 |
| CTAACGCA | -0.00926 |
| GAGTCCAC | -0.0624 |
| GCGAGGCA | -0.138 |
| TATGAACA | 0.168 |
| AAGACGCT | -0.191 |
| ATTTAATA | 0.21 |
| AAATGGAA | 0.0613 |
| AAGAAGCA | -0.0504 |
| GCGCTACC | 0.134 |
| TTATCAAA | 0.2 |
| CTAATCGC | -0.0671 |
| CGAGAAAA | 0.0682 |
| CAGCCACC | -0.096 |

| Sequence | PBM E-score |
| --- | --- |
| GTGAGGTA | 0.169 |
| CTCAGACC | -0.0198 |
| AGTAATAT | 0.178 |
| CACAAAAG | 0.215 |
| CAGGGCTC | -0.25 |
| CTGTCAGA | -0.0782 |
| CCTCGACA | -0.0199 |
| CTACAGTA | 0.0671 |
| TAAGATGA | -0.125 |
| ATCCGTAG | -0.191 |
| CTGCAATC | -0.0386 |
| GACAATAC | 0.162 |
| AGTCCGAC | -0.121 |
| AGAACGGA | 0.032 |
| ATGGAGAA | 0.106 |
| GGAAATAC | -0.0534 |
| AGCGTTAC | 0.0246 |
| CCCCAGAC | -0.114 |
| ACGCAACG | 0.0875 |
| ATATAGAC | -0.011 |
| CACCGTAA | 0.196 |
| AGATGGAT | -0.254 |
| AGTCGTTC | -0.148 |
| CACCTCGA | 0.215 |
| ACTCAAAA | 0.0364 |

| Sequence | PBM E-score |
| --- | --- |
| CCTGCGCC | -0.187 |
| CCCAGGTC | -0.13 |
| ATTCTTAC | 0.137 |
| ATTAGAGG | 0.0254 |
| AAAACTCG | 0.129 |
| TCACTGAA | 0.073 |
| CATCTCTC | -0.0882 |
| CGGGTCTA | 0.0775 |
| AGTAGTGG | 0.142 |
| ACTGACCC | 0.109 |
| AGGCGGGC | -0.347 |
| ACATGTCA | -0.0569 |
| AATTAGAA | 0.0569 |
| ATAAAGGC | -0.00446 |
| ACCCGTAC | 0.0183 |
| AGAACTCA | 0.0932 |
| CCAAACCA | 0.0629 |
| GGCGCACC | -0.0307 |
| AGACGTAT | -0.164 |
| AGTGATCA | -0.0123 |
| GTTATTAA | 0.305 |
| AACTGCAG | -0.0265 |
| TAGGATCA | 0.0416 |
| AACGCGAG | -0.0126 |
| AAACACTT | -0.0762 |

| Sequence | PBM E-score |
| --- | --- |
| ATGTCAAA | -0.0366 |
| GCTGCAGA | -0.163 |
| GACACTTA | -0.177 |
| GCCCCGGA | -0.0209 |
| GCAACCCA | 0.294 |
| ACACGCAA | 0.0714 |
| AGTTTGAT | -0.0115 |
| CAACCCCA | 0.42 |
| CAAAGTGA | 0.0371 |
| CAGACACC | -0.0467 |
| GGCAACGA | -0.0667 |
| CGAAGGGA | 0.0197 |
| ACGATACG | -0.0335 |
| CGGTCTCC | -0.217 |
| CCCGACCG | 0.0188 |
| CTAGTCCA | -0.0875 |
| GAATCGGA | -0.0718 |
| CACCGTGC | 0.0803 |
| CCGCGGAA | 0.127 |
| CCCGGACC | 0.0712 |
| AGCACCAC | -0.116 |
| CTACGAAA | -0.1 |
| CATAAAGA | 0.116 |
| TCAGTACA | 0.141 |
| GCCGTGCC | -0.168 |

| Sequence | PBM E-score |
| --- | --- |
| CTCTGACA | 0.0983 |
| AATACCGT | 0.0758 |
| AACTGCAA | 0.0405 |
| ATGTTCCC | -0.156 |
| ACCCCTAG | 0.341 |
| ACGTATAA | -0.0471 |
| ATTCCAGC | -0.183 |
| CCCCGTCA | -0.0604 |
| AGTCTTCC | -0.161 |
| GGTGAGAC | -0.0582 |
| GAATTTGC | -0.183 |
| CGGATGCA | -0.0921 |
| ACTAAAGT | -0.0221 |
| AGGAAAGC | -0.223 |
| CGACAATC | -0.189 |
| GAACTCAC | 0.013 |
| CTTGAAGC | 0.00891 |
| ATAGGCGC | -0.134 |
| GCCCTGGA | -0.181 |
| CCCGATGC | -0.215 |
| ACACAAAC | 0.166 |
| ACACCAGT | -0.0248 |
| AGAACCCA | 0.19 |
| GAGGACCA | -0.0833 |
| TATTTGGA | -0.152 |

| Sequence | PBM E-score |
| --- | --- |
| GGCTATGA | -0.172 |
| CATAGGAA | -0.142 |
| CCCAGACA | -0.00707 |
| AGTCCTCC | -0.144 |
| CCACGAGA | -0.0813 |
| GCACTGAC | -0.156 |
| CGCGCAAC | 0.0629 |
| ATGGACCA | 0.119 |
| CGGCGGAA | -0.0432 |
| AATCTAAT | -0.0502 |
| ATCCGTGC | 0.0137 |
| GTGTGTTA | 0.144 |
| CTAGAGTA | -0.0442 |
| AACCCTTC | 0.424 |
| CTCCCTCA | -0.188 |
| ATCAATAG | 0.0709 |
| AATTCGTC | -0.0404 |
| AAATGGGG | -0.0511 |
| CCACGTTA | 0.152 |
| ATAGGACA | -0.15 |
| ACTATCCA | -0.0951 |
| CCGCAGCA | -0.0602 |
| ATTACCTG | 0.149 |
| CTTTTAAA | 0.117 |
| AAGGCCGT | 0.0959 |

| Sequence | PBM E-score |
| --- | --- |
| AGTGTTAC | 0.0824 |
| AGGCGCCG | -0.0446 |
| ACCGCATG | 0.146 |
| ACGCTTGA | 0.0154 |
| GTAGTATA | 0.165 |
| AAATGGCA | -0.0227 |
| AAGGCTTA | -0.295 |
| CATGCTCG | -0.241 |
| CAAAGGGC | 0.0554 |
| ATGGGACG | 0.0501 |
| ATGTTAAT | 0.082 |
| GAGGGACA | -0.116 |
| ATTCTAAA | 0.0868 |
| CCATTGAC | -0.0454 |
| AGATTAAA | 0.2 |
| CCAGCCGC | -0.287 |
| AGAGTACG | -0.00063 |
| TCCGTTCA | -0.31 |
| AGGCTCGC | -0.122 |
| AACGTAAT | 0.0746 |
| CGAAGGAA | 0.0492 |
| ATCGGAGC | -0.137 |
